From a collection of fitness landscapes (doi:10.1126/science.1257360)
This is one part of the list.

B1: PhoQ; a variant is named by its letters at X, in order, P23837 (parent)
chain: MKKLLRLFFPLSLRVRFLLATAAVVLVLSLAYGMVALIGYSVSFDKTTFRLLRGESNLFYTLAKWENNKLHVELPENIDKQSPTMTLIYDENGQLLWAQRDVPWLMKMIQPDWLKSNGFHEIEADVNDTSLLLSGDHSIQQQLQEVREDDDDAEMTHSVAVNVYPATSRMPKLTIVVVDTIPVELKSSYMVWSWFIYVLSANLLLVIPLLWVAAWWSLRPIEALAKEVRELEEHNRELLNPATTRELTSLVRNLNRLLKSERERYDKYRTTLTDLTHSLKTPLXXLQXXLRSLRSEKMSVSDAEPVMLEQISRISQQIGYYLHRASMRGGTLLSRELHPVAPLLDNLTSALNKVYQRKGVNISLDISPEISFVGEQNDFVEVMGNVLDNACKYCLEFVEISARQTDEHLYIVVEDDGPGIPLSKREVIFDRGQRVDTLRPGQGVGLAVAREITEQYEGKIVAGESMLGGARMEVIFGRQHSAPKDE

Variants of: B1
Assay: enrichment ratio after two sorts for PhoP signalling (ratio (wild type AVST 3.29)); higher = more functional
Conditions: with PhoP (E. coli)

Point of comparison: SGSN, enrichment ratio 13.3. Against it:
- NAAR — lower, ≤ 0.25
- FHDR — lower, ≤ 0.25
- KIPR — lower, ≤ 0.25
- HWFM — lower, ≤ 0.25
- FCAM — lower, ≤ 0.25
- SWQP — lower, ≤ 0.25
- ACPS — lower, ≤ 0.25
- YEQE — lower, ≤ 0.25
- LSVT — lower, ≤ 0.25
- GQVS — lower, 1.28
- FFGD — lower, ≤ 0.25
- LPSK — lower, ≤ 0.25
- PYFA — lower, ≤ 0.25
- YTTN — lower, ≤ 0.25
- HTCT — lower, ≤ 0.25
- YMNP — lower, ≤ 0.25
- AQTL — lower, 3.33
- IQGN — lower, ≤ 0.25
- EYAT — lower, ≤ 0.25
- MGCK — lower, 3.89
- AILC — lower, 7.86
- EHDS — lower, ≤ 0.25
- FKHK — lower, ≤ 0.25
- RMIG — lower, 0.897
- SITA — higher, 20
- VFNP — lower, 0.444
- ERHG — lower, ≤ 0.25
- MKRC — lower, ≤ 0.25
- FSKK — lower, ≤ 0.25
- VVYR — lower, ≤ 0.25
- KFNM — lower, ≤ 0.25
- AVAV — lower, 6.08
- KCRW — lower, ≤ 0.25
- YKFM — lower, ≤ 0.25
- PESM — lower, ≤ 0.25
- KWYY — lower, ≤ 0.25
- FWFT — lower, ≤ 0.25
- EPVI — lower, ≤ 0.25
- DCVL — lower, ≤ 0.25
- KVVS — lower, ≤ 0.25
- IHNY — lower, ≤ 0.25
- STGD — lower, 0.301
- NGFL — lower, ≤ 0.25
- ALFF — lower, ≤ 0.25
- MSNL — lower, ≤ 0.25
- HYGQ — lower, ≤ 0.25
- GKMD — lower, ≤ 0.25
- QFEL — lower, ≤ 0.25
- QETM — lower, ≤ 0.25
- SCAY — lower, 4.94
- LIPY — lower, ≤ 0.25
- QSHG — lower, 0.858
- DWQL — lower, ≤ 0.25
- KRKD — lower, ≤ 0.25
- SESH — lower, 13.1
- GNRI — lower, ≤ 0.25
- AHHR — lower, ≤ 0.25
- SICQ — higher, 27.6
- ESLS — lower, ≤ 0.25
- GWPS — lower, ≤ 0.25
- LAPK — lower, ≤ 0.25
- VHEG — lower, ≤ 0.25
- GSGS — lower, ≤ 0.25
- PNNE — lower, ≤ 0.25
- QPHQ — lower, ≤ 0.25
- QHGP — lower, ≤ 0.25
- KFHQ — lower, ≤ 0.25
- TKLS — higher, 19.9
- AKMN — lower, 0.317
- TITY — lower, ≤ 0.25
- DLKL — lower, ≤ 0.25
- DWRL — lower, ≤ 0.25
- ECLP — lower, ≤ 0.25
- KFSQ — lower, ≤ 0.25
- ICME — lower, ≤ 0.25
- VFCR — lower, ≤ 0.25
- INFL — lower, ≤ 0.25
- VNWC — lower, ≤ 0.25
- NVPP — lower, ≤ 0.25
- INDD — lower, ≤ 0.25
- YISF — lower, 0.417
- YCMY — lower, ≤ 0.25
- IDCI — lower, ≤ 0.25
- MQCW — lower, ≤ 0.25
- VWTE — lower, ≤ 0.25
- NASS — lower, ≤ 0.25
- KKRI — lower, ≤ 0.25
- HIFC — lower, ≤ 0.25
- RRCQ — lower, ≤ 0.25
- RWHI — lower, ≤ 0.25
- DNIS — lower, ≤ 0.25
- TMHE — lower, ≤ 0.25
- LPDH — lower, ≤ 0.25
- NQDT — lower, ≤ 0.25
- MPGS — lower, ≤ 0.25
- YLAF — lower, ≤ 0.25
- FFTK — lower, ≤ 0.25
- YPVM — lower, ≤ 0.25
- PISF — lower, ≤ 0.25
- NESY — lower, ≤ 0.25
- EPWP — lower, ≤ 0.25
- LDVH — lower, ≤ 0.25
- KGMV — lower, ≤ 0.25
- IHYM — lower, ≤ 0.25
- DGEP — lower, ≤ 0.25
- MAIN — lower, ≤ 0.25
- PHSR — lower, ≤ 0.25
- GREN — lower, ≤ 0.25
- PSAF — lower, ≤ 0.25
- DQLS — lower, ≤ 0.25
- PDYG — lower, ≤ 0.25
- SFLT — lower, ≤ 0.25
- LTLC — lower, ≤ 0.25
- DIRA — lower, ≤ 0.25
- ACTP — lower, ≤ 0.25
- IEIS — lower, ≤ 0.25
- IPLP — lower, ≤ 0.25
- ELHI — lower, ≤ 0.25
- NFEA — lower, ≤ 0.25
- NSIK — lower, ≤ 0.25
- NIYT — lower, ≤ 0.25
- IPKN — lower, ≤ 0.25
- DNHM — lower, ≤ 0.25
- TVGT — lower, 5
- MVLM — lower, 9.33
- DGKA — lower, ≤ 0.25
- VDNQ — lower, ≤ 0.25
- MYPG — lower, ≤ 0.25
- GQWI — lower, ≤ 0.25
- PDFF — lower, ≤ 0.25
- MDTV — lower, ≤ 0.25
- VHKC — lower, ≤ 0.25
- DTLQ — lower, 0.616
- LWHS — lower, ≤ 0.25
- LRFK — lower, ≤ 0.25
- VWTS — lower, ≤ 0.25
- EAAD — lower, ≤ 0.25
- VGKP — lower, ≤ 0.25
- SDYK — lower, ≤ 0.25
- MQGH — lower, ≤ 0.25
- EYDM — lower, ≤ 0.25
- QHRD — lower, ≤ 0.25
- ECFN — lower, ≤ 0.25
- STYH — lower, ≤ 0.25
- TIWP — lower, ≤ 0.25
- IVSH — lower, ≤ 0.25
- MMMP — lower, ≤ 0.25
- YFDM — lower, ≤ 0.25
- AVGT — lower, ≤ 0.25
- DFTT — lower, ≤ 0.25
- LLAM — lower, 0.662
- GWGL — lower, ≤ 0.25
- MLRY — lower, 0.894
- TYYH — lower, ≤ 0.25
- EIYM — lower, ≤ 0.25
- RPGV — lower, ≤ 0.25
- SRSW — lower, ≤ 0.25
- QSMC — lower, 10.1
- RMQL — lower, ≤ 0.25
- TSEA — lower, ≤ 0.25
- MTTG — lower, ≤ 0.25
- MEVP — lower, ≤ 0.25
- WGGQ — lower, ≤ 0.25
- FVCG — lower, ≤ 0.25
- DDPL — lower, ≤ 0.25
- EFVN — lower, 1.44
- HWTS — lower, ≤ 0.25
- WIHA — lower, ≤ 0.25
- QLHD — lower, ≤ 0.25
- NSVH — lower, ≤ 0.25
- PIEW — lower, ≤ 0.25
- YSFI — lower, ≤ 0.25
- LSVR — lower, ≤ 0.25
- ADFP — lower, ≤ 0.25
- VCPW — lower, ≤ 0.25
- KEIC — lower, ≤ 0.25
- HRLH — lower, ≤ 0.25
- FIHG — lower, ≤ 0.25
- TVCL — lower, 1.67
- PSFW — lower, ≤ 0.25
- RPWC — lower, ≤ 0.25
- TQIF — lower, ≤ 0.25
- VDVA — lower, ≤ 0.25
- KQHA — lower, ≤ 0.25
- YYKW — lower, ≤ 0.25
- LDKS — lower, ≤ 0.25
- ARRA — lower, ≤ 0.25
- PQST — lower, ≤ 0.25
- VHWK — lower, ≤ 0.25
- NYTC — lower, ≤ 0.25
- DGQL — lower, ≤ 0.25
- WQPD — lower, ≤ 0.25
- DGCM — lower, ≤ 0.25
- AKVS — higher, 13.5
